Test results from publication PMC4336329 (PLoS ONE, 2015).
Among all 310,000 compounds or so, about 14,000 (4.5%) showed an effect of 50% or more. Effects have a minus sign here. This is one part of the list.

These compounds were tested against human ether-à-go-go-related gene (hERG) potassium channel (human, UniProt Q12809) (assay: primary screen, population patch clamp on CHO cells stably expressing hERG).
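Note: peak tail current of the secondary pulse compared with the same well before compound.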

human ether-à-go-go-related gene (hERG) potassium channel, sequence (Q12809 whole entry, looked up): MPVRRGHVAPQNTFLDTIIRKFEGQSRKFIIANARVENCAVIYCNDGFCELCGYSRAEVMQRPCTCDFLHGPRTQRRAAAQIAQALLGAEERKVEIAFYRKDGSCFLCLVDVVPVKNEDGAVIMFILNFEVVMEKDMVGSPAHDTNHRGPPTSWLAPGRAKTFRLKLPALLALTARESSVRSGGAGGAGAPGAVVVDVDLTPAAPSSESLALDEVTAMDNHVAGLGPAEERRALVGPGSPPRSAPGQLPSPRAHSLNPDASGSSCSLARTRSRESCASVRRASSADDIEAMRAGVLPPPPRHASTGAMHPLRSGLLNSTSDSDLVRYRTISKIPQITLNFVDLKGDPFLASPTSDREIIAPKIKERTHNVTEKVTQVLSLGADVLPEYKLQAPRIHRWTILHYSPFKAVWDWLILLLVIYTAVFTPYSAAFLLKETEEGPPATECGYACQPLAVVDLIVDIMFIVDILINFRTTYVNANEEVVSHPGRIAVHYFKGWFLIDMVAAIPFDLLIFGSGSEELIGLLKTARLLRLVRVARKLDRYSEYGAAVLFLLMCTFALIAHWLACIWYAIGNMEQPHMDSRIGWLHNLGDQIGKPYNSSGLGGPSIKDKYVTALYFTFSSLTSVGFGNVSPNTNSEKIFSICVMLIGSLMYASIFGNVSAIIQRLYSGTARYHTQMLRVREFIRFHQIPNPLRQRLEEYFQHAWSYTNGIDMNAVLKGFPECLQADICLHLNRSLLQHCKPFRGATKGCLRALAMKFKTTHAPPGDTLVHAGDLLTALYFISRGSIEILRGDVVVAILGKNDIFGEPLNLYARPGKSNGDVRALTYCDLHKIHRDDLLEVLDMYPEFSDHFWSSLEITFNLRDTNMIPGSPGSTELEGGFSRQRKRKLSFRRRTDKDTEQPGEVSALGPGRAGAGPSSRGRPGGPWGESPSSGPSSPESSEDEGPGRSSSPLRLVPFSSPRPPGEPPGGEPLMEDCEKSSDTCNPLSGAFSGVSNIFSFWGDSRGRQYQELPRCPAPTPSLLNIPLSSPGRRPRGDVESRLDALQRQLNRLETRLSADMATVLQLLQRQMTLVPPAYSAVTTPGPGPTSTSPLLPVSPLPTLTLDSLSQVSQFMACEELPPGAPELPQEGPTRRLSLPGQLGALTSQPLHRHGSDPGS

Compound	hERG current change (%, negative = inhibition) at 10uM [%]
COc1ccc(CN(C)C(=O)c2cnc(OC)cc2C(F)(F)F)c(OC)c1	-15.6
Cc1ccc2oc(C(=O)NCCCN3CCOCC3)c(C)c2c1	-10.6
O=C(Nc1cnn(Cc2ccc(F)cc2)c1)c1cnn2c(C(F)F)cc(-c3ccccc3)nc12	5.3
CC1S/C(=N/N=C/c2cccc([N+](=O)[O-])c2)NC1=O (stereo not shown)	5.33
Cc1ccc(Cn2c(C)nc3c(c2=O)c2nc4ccccc4nc2n3Cc2ccco2)cc1	5.72
O=C(Nc1ccccc1C(=O)N/N=C/c1ccc(F)cc1)c1ccccc1Br	-10.3
C#Cc1ccc([C@@H]2C=C(C(=O)OCC=C)O[C@H](OCCCCO)C2)cc1	-10.7
Cc1cccnc1NC(=O)Nc1cccc2ccccc12	-0.189
CCOc1cc(C(=O)OCc2cccc(OC)c2OC)ccc1OCC(=O)N1CCOCC1	-11
Cc1ccc2nc(NC(=S)NC(=O)c3ccco3)sc2c1	11.7
O=P(C1=C(N2CCOCC2)/C(=C\c2ccccc2)CC1)(N1CCOCC1)N1CCOCC1	-25.3
CC(C)(C)c1csc(NC(=O)Nc2ccccc2)n1	13.5
O=C(O)C1CN(C(=O)c2cccc(Br)c2)C1	29.5
CCCc1cc(=O)[nH]c(SCC(=O)NC2CCCCC2)n1	2.12
COc1ccccc1CNC(=O)/C=C/c1ccc(Br)o1	-2.72
CC(C)(C)NC(=O)CN(C(=O)CNS(=O)(=O)c1ccccc1)c1ccc2c(c1)OCCO2	6.79
CCOC(=O)CSc1nc2c(cnn2-c2ccc(C)cc2)c(=O)[nH]1	7.7
Cc1ccccc1C(N)c1ccncc1.Cl (stereo not shown)	2.52
Cc1cnc(C(=O)OCC(=O)Nc2ccc(C)c(S(=O)(=O)N3CCCCCC3)c2)cn1	-23.2
Cc1ccc(C(=O)OCCN(C)Cc2ccccc2)cc1.Cl	-44.6
O=C(CCc1nc2ccccc2c(=O)[nH]1)OCC(=O)c1ccc(C2CCCCC2)cc1	-8.95
COc1ccc(-c2nc(NCCCN(C)C)c3ccccc3n2)cc1.Cl	-27.3

Compound	hERG current change (%, negative = inhibition) at 10uM [%]
CCOC(=O)c1[nH]cnc1C(=O)NC1CCCCC1	23.5
CCCC(C)n1[nH]c(=O)c2c(C)cc(C)nc21 (stereo not shown)	6.46
CN(C)CC(C)(C)CNS(=O)(=O)c1cccc2nsnc12	6.86
COc1ccc(-c2c(N)nnc3c2[nH]c2ccccc23)cc1OC.Cl	-14.3
COc1ccc(CC(=O)NCc2cn3ccsc3n2)cc1	16.2
Cc1ccc(C2=[N+]([O-])C(C)(C)N(O)C2(C)C)cc1	4.91
Cc1cnc(NC(=O)CC(C)c2ccccc2)s1 (stereo not shown)	15.8
CCOc1cc(NC(=O)c2ccccn2)c(OCC)cc1NC(=O)c1ccc(OC)cc1	3.54
O=C(c1ccc([N+](=O)[O-])cc1[N+](=O)[O-])N1CCN(C(=O)C2CCCO2)CC1 (stereo not shown)	5.57
COc1cc(C(=O)Nc2cccc(S(=O)(=O)N3CCCC3)c2)cc(OC)c1C	2.98
Cc1ccccc1N(CC(=O)NC1CCCCC1)C(=O)CNC(=O)c1cccs1	-32.8
COC(=O)COc1cc(C)cc2oc(=O)c(CC(=O)OC)c(C)c12	-23.8
CCOCCCNC(=O)C1CCCN(S(=O)(=O)CC)C1 (stereo not shown)	5.35
COc1cc(OC)cc(C(=O)NCCNc2nc3cc(C)cc(C)c3cc2C#N)c1	0.0728
COc1ccc(S(=O)(=O)N2CCCC(C(=O)Nc3ccc(NC(=O)c4ccccn4)cc3)C2)cc1 (stereo not shown)	4.17
CC(C)Cc1cc(CNC(=O)C2CCC(=O)N(CCc3cccc(F)c3)C2)on1 (stereo not shown)	-43.4
Cc1ccc(NC(=S)NNC(=O)Nc2ccccc2)cc1	39
COc1ccc(CCNC(=O)c2cc3c(=O)n4ccccc4nc3n(CCCN3CCOCC3)c2=N)cc1	-79
COc1cc(C)c(NC(=S)Nc2cccc(Cl)c2)cc1OC	6.72
CN(C)S(=O)(=O)N1CCN(CC(O)COc2ccc3cc(Br)ccc3c2)CC1 (stereo not shown)	-25.6
COc1ccc(C)cc1NC(=O)C(Sc1nnc(-c2ccncc2)n1-c1ccc(Cl)cc1)c1ccccc1 (stereo not shown)	17.3
COc1ccc(OCC(=O)Nc2ccc(C(=O)Nc3ccccc3C(=O)O)cc2)cc1	23.2

Compound	hERG current change (%, negative = inhibition) at 10uM [%]
COc1ccc(NC(=O)CCCC(=O)NCCc2ccc(OC)c(OC)c2)cc1	7.19
COc1cccc(NC(=O)C(OC(=O)c2ccccc2NS(=O)(=O)c2cccs2)c2ccccc2)c1 (stereo not shown)	5.84
CCc1nnc(NC(=O)CSc2nnc(Cc3cccn3C)n2C)s1	10.2
CCOC(=O)N1CCC(NC(=O)CS(=O)Cc2nc(-c3ccc(OC)c(OC)c3)oc2C)CC1 (stereo not shown)	15.2
O=S(=O)([O-])Oc1c[nH]c2ccccc12.[K+]	17.8
N#Cc1ccc(OCC(=O)NCC2COc3ccccc3O2)cc1 (stereo not shown)	-16.4
CC(=O)Cc1nsc(Nc2cccc(C)c2)n1	3.45
O=C(Nc1cccc2ccccc12)c1nn(C23CC4CC(CC(C4)C2)C3)cc1[N+](=O)[O-]	-2.59
CCCCn1c(SCC(=O)Nc2cc(C)on2)nc2ccsc2c1=O	8.7
CCOC(=O)c1nn(-c2ccccc2Cl)c(=O)cc1OCC(=O)Nc1cccc(OC)c1	18.9
Cc1ccc(F)c(NC(=O)CCOc2ccccc2C)c1	-4.52
Cc1cc(=O)oc2cc(NC(=O)c3cc(F)ccc3F)ccc12	5.23
COC(=O)c1[nH]c2ccc(Br)cc2c1NC(=O)CN1CCCCC1CCO (stereo not shown)	-2.6
Cc1nc2ccccc2n1CCC(=O)Nc1cccc(F)c1	-6.53
CCn1cc(C(=O)NC(C)C23CC4CC(CC(C4)C2)C3)cn1 (stereo not shown)	-11.5
c1csc(-c2nnc(N3CCOCC3)c3ccccc23)c1	-32.1
CC(C)CN1CCN(Cc2cccc3c2OCO3)CC1CCO (stereo not shown)	-1.45
Cc1cc2ncn(S(=O)(=O)N3CCCCC3)c2cc1C	5.63
CCN1CCN(c2ncc(C(=O)Nc3cc(Cl)ccc3OC)c3ccccc23)CC1	-61.5
Cc1ccc(OCCCN2CCOCC2)c([N+](=O)[O-])c1.O=C(O)C(=O)O	-12
COC(=O)c1ccc(N2CCN(c3ccccc3)CC2)c(NC(=O)C2CC2)c1	-35.6
C=CCOCCn1[nH]c2ccccc2c1=O	4.75

Compound	hERG current change (%, negative = inhibition) at 10uM [%]
O=C(Cn1cc([N+](=O)[O-])cn1)N1CCc2ccccc21	0.639
COc1cc(CC(=O)Nc2cccc(SC)c2)cc(OC)c1OC	24.6
Cl.Nc1nc(N2CCCCC2)nc2ccccc12	-45.8
N#CC1=C(N)N2C(=C(C#N)C1c1ccc(Br)cc1)Nc1ccccc12 (stereo not shown)	11.3
O=C(CCNC(=O)OCc1ccccc1)NC1CCCCCC1	5.67
Cc1ccc(NC(=O)c2cnn(-c3ccccc3)c2NC(=O)c2ccco2)cc1	2.02
COc1ccc(NS(=O)(=O)c2ccc(SC)cc2)c(OC)c1	-7.12
Cc1cccc(N(C)S(=O)(=O)c2c(C)[nH]c(C)c2C(=O)N2CCCC2)c1	10.8
COc1ccc(-n2ccc(=O)c3c2CCCC3=O)cc1	13.5
CN1CCCC(OC(=O)c2ccc(C#N)cc2)C1.Cl (stereo not shown)	1.22
C=CCn1c(SC(C)C(=O)NCCC2=CCCCC2)nc2ccccc2c1=O (stereo not shown)	-37.9
Cc1ccc(O)c(-c2cc(C(=O)Nc3ccc(S(=O)(=O)Nc4nc(C)cc(C)n4)cc3)[nH]n2)c1	-23.1
O=C1c2cccc3cccc(c23)C(=O)N1CCCN1CCN(c2ccc(F)cc2)CC1	-69.2
CN1CCC(N(C)CC(=O)Nc2ccc3c(c2)OC(F)(F)O3)CC1.O=C(O)C(=O)O	-13.9
Cc1onc(-c2ccccc2Cl)c1C(=O)NCc1ccc(F)cc1	10.6
COc1ccc(Cl)cc1Nc1nc2ccc(C)cc2n2cnnc12	18.7
Cc1ccc2c(CC(=O)OC(C)C(=O)NCc3ccc4c(c3)OCO4)coc2c1 (stereo not shown)	9.23
O=C1N(Cc2cccc(Cl)c2)C[C@@H]2C[C@@H](c3ccco3)N3CCC[C@@]123	-25.9
CCOC(=O)c1ccc(-c2ccc(/C=N/NC(=O)CN(c3cccc(C)c3)S(C)(=O)=O)o2)cc1	2.43
CNc1snc(C)c1C(=O)OCC(=O)c1ccc(OC)c(F)c1	12.2
COc1ccc(-n2c(Cc3cccc([N+](=O)[O-])c3)nc3ccccc3c2=O)cc1	-69.4
CCOc1ccc2nc(SC3CC(=O)N(c4cccc(OC)c4)C3=O)sc2c1 (stereo not shown)	13.1
